The values below come from PubChem BioAssay AID360 (National Center for Advancing Translational Sciences (NCATS), 2006).

Molecules are shown by their SMILES. Screen size: about 48,000 compounds; about 550 (1.1%) were called active. Roughly 4% stayed inconclusive and do not appear here. No stated cut-off is given here; in the data, active means potency below about 15 µM; inconclusive means mostly about 16 µM to 33 µM; inactive means weaker than that. This is one part of the list.
Potency means the concentration at half of the fitted maximal effect.

The target of this experiment is Lysosomal acid glucosylceramidase (Homo sapiens) (UniProt P04062). Put plainly: Glucocerebrosidase.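 Further: the screen sought inhibitors.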 The conditions noted are these: purified enzyme, resorufin glucoside fluorescence (screen aimed at inhibitors), 20 min; series mostly up to 77 µM. The procedure, abridged: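 Wild-type enzyme at 0.2 nM final in 50mM citric acid/KH2PO4, 10mM sodium taurocholate, 0.01% tween-20, pH 5.9, with resorufin beta-D-glucopyranoside at 30 uM final. Compounds titrated, 20 min at RT, red fluorescence read; AC50 from titration.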
Sequence of UniProt P04062 (P04062 whole entry, looked up): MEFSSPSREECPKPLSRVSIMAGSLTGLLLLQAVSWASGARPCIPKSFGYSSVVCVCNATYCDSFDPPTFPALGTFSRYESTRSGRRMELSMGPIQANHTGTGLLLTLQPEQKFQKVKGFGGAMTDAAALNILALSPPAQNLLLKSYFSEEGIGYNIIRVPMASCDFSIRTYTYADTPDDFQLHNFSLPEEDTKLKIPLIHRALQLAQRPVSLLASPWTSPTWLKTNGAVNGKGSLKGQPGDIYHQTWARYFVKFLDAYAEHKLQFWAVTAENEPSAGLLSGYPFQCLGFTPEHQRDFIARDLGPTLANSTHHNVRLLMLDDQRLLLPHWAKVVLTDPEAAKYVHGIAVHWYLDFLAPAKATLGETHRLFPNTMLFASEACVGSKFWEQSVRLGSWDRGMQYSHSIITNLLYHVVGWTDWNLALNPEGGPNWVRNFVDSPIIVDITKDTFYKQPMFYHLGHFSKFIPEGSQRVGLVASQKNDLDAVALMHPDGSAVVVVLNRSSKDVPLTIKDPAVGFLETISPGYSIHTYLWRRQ
With `O=C(Cn1cnc2c(nnn2-c2cccc(Cl)c2)c1=O)N1CCCC1`, the Potency was inactive: > 76.9 µM.
Next, `COc1ccc(-c2nnn(CCc3nn[nH]n3)n2)cc1OC`: inactive: > 76.9 µM; `Cc1cc(Nc2nc3c(c(=O)n(C)c(=O)n3C)n2C)n(-c2ccc(Cl)cc2)n1`: inactive: > 76.9 µM.
For `O=C(c1ccc(Nc2cccc(C(F)(F)F)c2)nc1)N1CCCC1` the value was inactive: > 76.9 µM.
Next, `CC(=O)Nc1ccc(S(=O)(=O)n2nc(-c3ccc(C)cc3)nc2N)cc1`: inactive: > 76.9 µM.
As to `COc1ccc(N2Cc3cccc(C(=O)N4CCOCC4)c3C2=O)cc1`, the Potency was inactive: > 76.9 µM.
Regarding `O=C(CCNS(=O)(=O)c1cccs1)NCc1cccs1`, the Potency was inactive: > 76.9 µM.
`CN(C)C(=O)c1nc(C#N)c(N(C)C)o1`: the Potency was inactive: > 76.9 µM.
`CC1CCc2cccc3c2N1c1cc(C#N)c(C#N)cc1O3` (stereo not given): the Potency is active: 5 µM.
In the case of `COCCn1cnc2c(c1=O)c1nc3ccccc3nc1n2/N=C/c1cccc(OC)c1OC`, the Potency entry is “inactive”.
Turning to `COC(=O)c1nnn(CC(=O)Nc2cccc(Cl)c2)c1C(=O)OC`, the Potency is inactive: > 76.9 µM.
Next, `CCCC(c1nnnn1CS(=O)(=O)c1ccc(C)cc1)N1CCN(c2ccc(F)cc2)CC1` (stereo not given): inactive: > 76.9 µM; `COc1ccccc1N(CN1CCCC1=O)C(=O)c1c(F)cccc1Cl`: inactive: > 76.9 µM.
Consider `CCOC(=O)c1snc2c(=O)[nH]cnc12`, for which the Potency is inactive: > 76.9 µM.
Turning to `CCN(CC)c1ccc(NC(=O)c2c(OC)cccc2OC)c(C)c1`, the Potency is inactive: > 76.9 µM.
With `CCn1c(CSc2nc(C)cs2)nc2cc(S(=O)(=O)N(C)C)ccc21`, the Potency is inactive: > 76.9 µM.
As for `CCOC(=O)N1CCC(N(CCOC)C(=O)Nc2ccc(Cl)c(Cl)c2)CC1`, the Potency was inactive: > 76.9 µM.
With `O=c1nc2c(-c3ccccc3F)n[nH]n2c2ccccc12`, the Potency is inactive: > 76.9 µM.
Turning to `NC(=O)c1ccsc1NC(=O)CSc1nc2ccccc2c(=O)n1CCCO`, the Potency was inactive: > 76.9 µM.
Next, `CCOC(=O)Cc1cnc(NC(=O)Cn2nnc(-c3ccc(OCC)cc3)n2)s1`: inactive: > 76.9 µM; `Cc1cc(C(=O)Nc2nnc(C(F)(F)F)s2)no1`: inactive: > 76.9 µM; `CCOC(=O)c1nn(-c2ccc3c(c2)OCO3)cc1O`: inactive: > 76.9 µM.
For the compound `Cc1ccc(SCCNC(=O)CN(c2ccc3c(c2)OCO3)S(C)(=O)=O)cc1`, the Potency is inactive: > 76.9 µM.
Take `O=C(CCCN=C1NS(=O)(=O)c2ccccc21)OCC(=O)N1CCc2ccccc21`: the Potency was inactive: > 76.9 µM.
As to `Cc1ccc(C)c(NC2=NS(=O)(=O)c3ccccc32)c1`, the Potency entry is “inactive”.
